Laboratory results as given in PubChem BioAssay (NCATS).
The other results are listed elsewhere or left out. Shown are side measurements of this screen, not its main read-out; they come without a call. Most of these compounds were active or inconclusive in the main read-out, so they are no random draw. Words in brackets tell the shape of the fitted curve; partial curves, single points and poor fits give uncertain potencies.

Assay: qHTS Assay for Lipid Storage Modulators (AID 1519)
Conditions: Drosophila S3 cells, BODIPY lipid droplet/cell ratio, laser cytometry, cells loaded with oleic acid
Outline: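 Cells seeded at 5,000 per well were treated with compounds over a concentration series and loaded with oleic acid (400 uM, as added). Lipid droplet fluorescence (488 nm excitation, 500-530 nm channel) was read by laser-scanning cytometry and normalized to 20 uM Triacsin C.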

[1] = measured here: cell count channel max response
[2] = measured here: cell number channel AC50
[3] = measured here: lipid (BODIPY) channel AC50
[4] = measured here: lipid channel max response
Tags describe the fitted curve by direction and shape.

SMILES	max response [1] [%]	AC50 [2]	AC50 [3]	max response [4] [%]
CC[C@]12CCCN3CCc4c(n(c5ccccc45)C(=O)C1)[C@H]32	64.8	15.8 µM [rising, partial curve, poor fit]	14.1 µM [rising, partial curve, poor fit]	82
Cc1noc(C)c1-c1cncnc1Nc1ccccc1	40.7	3.16 µM [rising, full curve]	2.24 µM [rising, full curve]	47.8
CCCCC(=O)NCCc1c(Cc2ccccc2)[nH]c2ccccc12	63.3	1.26 µM [rising, full curve]	0.316 µM [rising, full curve, poor fit]	43.9
COc1ccc2[nH]cc(CCNc3cc(-c4ccccc4C)ncn3)c2c1	17.5	1.26 µM [rising, full curve, poor fit]	1.41 µM [rising, full curve, poor fit]	16.8
O=C(c1cc(C(F)(F)F)cc(C(F)(F)F)c1)N1CCC2(CCCN(c3ncccn3)C2)CC1	11	1.78 µM [rising, full curve, poor fit]	1.26 µM [rising, partial curve]	13
CCNc1ncc2nc(CCc3ccccc3)c(=O)n(C)c2n1	19.5	0.224 µM [rising, full curve, poor fit]	0.224 µM [rising, full curve, poor fit]	30.5
O=S(=O)(c1ccccc1)N1CCC2(CCN(Cc3ccncc3)CC2)CC1	17	3.16 µM [rising, partial curve]	1.78 µM [rising, full curve, poor fit]	25.4
c1ccc(CNc2nc(-c3cccnc3)nc3ccccc23)cc1	24.5	3.55 µM [rising, partial curve]	0.562 µM [rising, full curve]	31.6
COc1ccc(-n2c(=O)c(-c3cc(F)cc(F)c3)nc3cncnc32)cc1	36.1	0.631 µM [rising, full curve]	0.631 µM [rising, full curve]	38.7
COCCn1c(=O)c(-c2ccc(OC)cc2)nc2cnc(Nc3cccc(OC)c3)nc21	34.3	2.82 µM [rising, full curve, poor fit]	1.26 µM [rising, partial curve, poor fit]	17.4
CC(C)Oc1cccc(-n2c(CCc3c[nH]c4ccc(Br)cc34)nc3ccccc3c2=O)c1	63.4	0.398 µM [rising, full curve, poor fit]	0.282 µM [rising, full curve, poor fit]	61.8
COc1cccc(Cn2c(=O)c(-c3ccc(Cl)cc3)nc3cnc(N4CCOCC4)nc32)c1	31.7	1.41 µM [rising, full curve, poor fit]	0.891 µM [rising, full curve]	41.4
COc1cccc(-c2nccc(NCc3cnc(C)cn3)n2)c1	45.5	1.26 µM [rising, full curve]	1 µM [rising, full curve]	46.8
O=c1cc(-c2ccc(O)cc2O)oc2ccccc12	71.3	12.6 µM [rising, partial curve]	12.6 µM [rising, partial curve]	94.6
COc1cccc(-c2cncnc2NCCN2CCOCC2)c1	35.7	2.51 µM [rising, full curve]	2.51 µM [rising, full curve]	42.5
COc1ccccc1CCn1c(=O)c(C)nc2cncnc21	36.6	0.0794 µM [rising, partial curve, poor fit]	0.0398 µM [rising, full curve]	51.9
CN(C)Cc1ccccc1-c1ccc2ncnc(N(C)C)c2c1	30.5	10 µM [rising, partial curve]	7.94 µM [rising, partial curve, poor fit]	42.2
Cc1cnc(CNc2nc(-c3ccoc3)nc3ccccc23)cn1	51.9	2 µM [rising, full curve, poor fit]	1.41 µM [rising, full curve]	65.4
c1cn(-c2cc(-c3ccc4c(c3)OCO4)ncn2)cn1	18.1	1.58 µM [rising, full curve, poor fit]	2 µM [rising, partial curve, poor fit]	24.6
COc1ccc(Oc2ncc3nc(-c4cccc(C#N)c4)c(=O)n(C)c3n2)cc1	11.6	3.16 µM [rising, partial curve, poor fit]	2.82 µM [rising, partial curve, poor fit]	15.4
COc1ccc(CNc2ncncc2-c2ccccc2C(F)(F)F)c(OC)c1	34	2.51 µM [rising, full curve, poor fit]	1.78 µM [rising, full curve, poor fit]	37.8
COc1ccc2c(OC)c3ccoc3nc2c1OC	130	0.141 µM [rising, full curve]	0.112 µM [rising, full curve]	165
NC(=NCCC[C@H](N)C(=O)O)NO	51.6	2.82 µM [falling, full curve, poor fit]	2.82 µM [falling, full curve, poor fit]	51.2
